Laboratory results reported in the BET-seq Pho4 binding data (Le et al. 2018).
The other results are listed elsewhere or left out. These are noisy estimates, calculated here from bound and input reads.

These sequences were tested against T1, Pho4 (S. cerevisiae) (UniProt P07270) (assay: relative binding free energy (BET-seq); higher = weaker binding). Conditions: reference: library average.
T1 sequence: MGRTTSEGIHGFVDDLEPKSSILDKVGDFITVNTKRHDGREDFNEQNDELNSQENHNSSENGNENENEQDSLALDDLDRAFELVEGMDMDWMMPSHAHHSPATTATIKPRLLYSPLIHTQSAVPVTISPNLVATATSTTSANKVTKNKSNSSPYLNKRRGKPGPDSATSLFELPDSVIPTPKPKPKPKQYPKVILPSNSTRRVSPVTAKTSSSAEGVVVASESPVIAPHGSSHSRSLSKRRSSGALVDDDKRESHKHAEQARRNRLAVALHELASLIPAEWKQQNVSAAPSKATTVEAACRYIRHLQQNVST
With GGGTCCACGTGATGAG the “relative binding free energy” value was 0.502 kJ/mol. With GATAGCACGTGCAGTT the “relative binding free energy” value was 0.209 kJ/mol. In the case of ACAGGCACGTGGTGTT, the “relative binding free energy” value is reported as -0.879 kJ/mol. In the case of ATGGTCACGTGCTGGC, the “relative binding free energy” value is reported as 0.92 kJ/mol. With TTTCACACGTGCTGTT the “relative binding free energy” value was 0.335 kJ/mol. For TGCTACACGTGGAGTG, the “relative binding free energy” value was -0.0837 kJ/mol. With ATTAACACGTGGCGGG the “relative binding free energy” value was -0.962 kJ/mol. CGGGACACGTGTTTCG was tested, and the “relative binding free energy” value was 0.711 kJ/mol. In the case of GTGAACACGTGGCGGT, the “relative binding free energy” value is reported as 0.0837 kJ/mol. In the case of ATTATCACGTGGTGTT, the “relative binding free energy” value is reported as 0.251 kJ/mol. In the case of TTGTCCACGTGATGCG, the “relative binding free energy” value is reported as 1.3 kJ/mol. For AATTTCACGTGTTAAG, the “relative binding free energy” value was 1.13 kJ/mol. For TGGTTCACGTGATAAT, the “relative binding free energy” value was 0.962 kJ/mol. For ATATGCACGTGGTTAG, the “relative binding free energy” value was -0.544 kJ/mol. For GGGGGCACGTGAATAT, the “relative binding free energy” value was 1.09 kJ/mol. In the case of TTATCCACGTGTATGG, the “relative binding free energy” value is reported as 0.293 kJ/mol. With GTTGACACGTGTTACG the “relative binding free energy” value was 1 kJ/mol. GTATACACGTGGAGCG was tested, and the “relative binding free energy” value was 0.795 kJ/mol. For TGGCGCACGTGAGTTT, the “relative binding free energy” value was 0.628 kJ/mol. For TCGTGCACGTGCGTGG, the “relative binding free energy” value was -0.418 kJ/mol. In the case of GGGTTCACGTGACGAT, the “relative binding free energy” value is reported as 2.09 kJ/mol. In the case of GGTTTCACGTGGATGC, the “relative binding free energy” value is reported as 0.879 kJ/mol. In the case of TTGTGCACGTGCTCAG, the “relative binding free energy” value is reported as -0.167 kJ/mol. With AGATGCACGTGTATAG the “relative binding free energy” value was 0.209 kJ/mol. For ATTGCCACGTGTTGGA, the “relative binding free energy” value was -0.251 kJ/mol. For GTATGCACGTGTTGGC, the “relative binding free energy” value was 0.0418 kJ/mol. GGTTTCACGTGGCTGC was tested, and the “relative binding free energy” value was 0.837 kJ/mol. In the case of ATAAGCACGTGTTGTG, the “relative binding free energy” value is reported as -0.418 kJ/mol. TGATGCACGTGTTAGC was tested, and the “relative binding free energy” value was 0.167 kJ/mol. For TATATCACGTGGATAT, the “relative binding free energy” value was 0.628 kJ/mol. With ACGTTCACGTGTGTTA the “relative binding free energy” value was 1.26 kJ/mol. With GAATGCACGTGGTGTT the “relative binding free energy” value was 0.0837 kJ/mol. For AAGTTCACGTGAATAG, the “relative binding free energy” value was 1.63 kJ/mol. With GTTTGCACGTGCGGCG the “relative binding free energy” value was 0.0837 kJ/mol. For AGTTACACGTGTTAAG, the “relative binding free energy” value was 0.251 kJ/mol. With ATATTCACGTGGGCTC the “relative binding free energy” value was 1.05 kJ/mol. TGTCTCACGTGTGATG was tested, and the “relative binding free energy” value was 1.26 kJ/mol. For GGGGGCACGTGTGAAT, the “relative binding free energy” value was 0.167 kJ/mol. For GGGAACACGTGGTATA, the “relative binding free energy” value was -0.251 kJ/mol. GAGTTCACGTGTGGGG was tested, and the “relative binding free energy” value was 1.8 kJ/mol. CTTGGCACGTGGATGC was tested, and the “relative binding free energy” value was -0.377 kJ/mol. In the case of TGTGTCACGTGTTCGT, the “relative binding free energy” value is reported as 0.209 kJ/mol. For TTTAGCACGTGGACGT, the “relative binding free energy” value was -0.628 kJ/mol. GGGACCACGTGGAGGT was tested, and the “relative binding free energy” value was -0.251 kJ/mol. In the case of GTTTTCACGTGGAGAG, the “relative binding free energy” value is reported as 1.59 kJ/mol. In the case of GGGCTCACGTGTGCAT, the “relative binding free energy” value is reported as 1.42 kJ/mol. In the case of TGGTGCACGTGGTAGA, the “relative binding free energy” value is reported as -0.126 kJ/mol. For TCAGGCACGTGTAGGA, the “relative binding free energy” value was -0.418 kJ/mol. In the case of GGGGTCACGTGAATTA, the “relative binding free energy” value is reported as 1.42 kJ/mol. With CAGGTCACGTGAGGGG the “relative binding free energy” value was 1.26 kJ/mol. In the case of ATTGTCACGTGCTGTT, the “relative binding free energy” value is reported as 0.126 kJ/mol. With TTAAGCACGTGTGGGT the “relative binding free energy” value was -0.126 kJ/mol. For TTAGGCACGTGGGGAC, the “relative binding free energy” value was -0.753 kJ/mol. GTCAGCACGTGTGGAA was tested, and the “relative binding free energy” value was 0.335 kJ/mol. With TTGATCACGTGAGAGT the “relative binding free energy” value was 1.3 kJ/mol. In the case of ATGTTCACGTGACGGA, the “relative binding free energy” value is reported as 1.05 kJ/mol. In the case of TATTGCACGTGCGATG, the “relative binding free energy” value is reported as 0.669 kJ/mol. In the case of GGCTTCACGTGGAAGT, the “relative binding free energy” value is reported as 1.38 kJ/mol. CTGGTCACGTGTAGGG was tested, and the “relative binding free energy” value was 0.92 kJ/mol. With TAGTGCACGTGGTAAT the “relative binding free energy” value was 0 kJ/mol. In the case of AGGTGCACGTGTCTGT, the “relative binding free energy” value is reported as -0.293 kJ/mol. With AGGCGCACGTGCGGGA the “relative binding free energy” value was -0.335 kJ/mol. In the case of AGAGGCACGTGGTGCA, the “relative binding free energy” value is reported as -0.711 kJ/mol. With TGTCCCACGTGGTGTG the “relative binding free energy” value was -0.879 kJ/mol. In the case of ATATGCACGTGTAGTT, the “relative binding free energy” value is reported as -0.167 kJ/mol. For GCGTGCACGTGCGCGG, the “relative binding free energy” value was -0.544 kJ/mol. With TGTTTCACGTGCTCTG the “relative binding free energy” value was 0.293 kJ/mol. For ATTGCCACGTGTATGT, the “relative binding free energy” value was -0.46 kJ/mol. With TTTGCCACGTGAGGGT the “relative binding free energy” value was 0.879 kJ/mol. In the case of GTGTGCACGTGACCGG, the “relative binding free energy” value is reported as 0 kJ/mol. For AGGTGCACGTGCGAGT, the “relative binding free energy” value was 0.293 kJ/mol. In the case of ATAGGCACGTGTATGA, the “relative binding free energy” value is reported as -0.251 kJ/mol. With AGGGTCACGTGTGAGG the “relative binding free energy” value was 0.795 kJ/mol. GTGTGCACGTGACGTT was tested, and the “relative binding free energy” value was 0.628 kJ/mol. With AGTAACACGTGGCAGG the “relative binding free energy” value was -0.335 kJ/mol. With AACTGCACGTGCGTGG the “relative binding free energy” value was -0.167 kJ/mol. TTTCTCACGTGTGTCT was tested, and the “relative binding free energy” value was 0.628 kJ/mol. GTTGACACGTGAGCGG was tested, and the “relative binding free energy” value was 1.09 kJ/mol. With CGATGCACGTGCTGGA the “relative binding free energy” value was 0.335 kJ/mol. For GTTGTCACGTGTGTCA, the “relative binding free energy” value was 0.502 kJ/mol. In the case of GGGAGCACGTGCGGGG, the “relative binding free energy” value is reported as -0.502 kJ/mol. GTTAACACGTGTTTTC was tested, and the “relative binding free energy” value was 0.502 kJ/mol. With GATAGCACGTGGGCCG the “relative binding free energy” value was -0.293 kJ/mol. In the case of ATCAGCACGTGGTTTG, the “relative binding free energy” value is reported as -0.795 kJ/mol. In the case of TGGGCCACGTGTTCGG, the “relative binding free energy” value is reported as -0.377 kJ/mol. TGTTGCACGTGCTAGG was tested, and the “relative binding free energy” value was 0.0837 kJ/mol. For ATTTTCACGTGGGTTA, the “relative binding free energy” value was 0.628 kJ/mol. For GTCGCCACGTGGGGAG, the “relative binding free energy” value was 0.251 kJ/mol. With GGTTGCACGTGGAGTG the “relative binding free energy” value was 0.628 kJ/mol. AGTGTCACGTGAATGC was tested, and the “relative binding free energy” value was 0.418 kJ/mol. For GGGGGCACGTGATGGC, the “relative binding free energy” value was 0.209 kJ/mol. With CTGGTCACGTGGGTTG the “relative binding free energy” value was -0.167 kJ/mol. In the case of GTAGTCACGTGCAGGG, the “relative binding free energy” value is reported as 0.209 kJ/mol. AATTGCACGTGATAGG was tested, and the “relative binding free energy” value was 0.0418 kJ/mol. In the case of TGTCGCACGTGGTTCG, the “relative binding free energy” value is reported as -0.293 kJ/mol. For TTGTTCACGTGTAGTG, the “relative binding free energy” value was 1.38 kJ/mol. TGGTGCACGTGCCGTT was tested, and the “relative binding free energy” value was -0.293 kJ/mol. TGCGGCACGTGGCCGT was tested, and the “relative binding free energy” value was -0.962 kJ/mol. In the case of AATAGCACGTGCTTGT, the “relative binding free energy” value is reported as -0.795 kJ/mol. For TTGGGCACGTGAGGTG, the “relative binding free energy” value was 0.711 kJ/mol. With GTTTCCACGTGAGTTA the “relative binding free energy” value was 1.09 kJ/mol. With GTCATCACGTGTAGTT the “relative binding free energy” value was 1.67 kJ/mol. In the case of ATGCTCACGTGGGGTC, the “relative binding free energy” value is reported as 0.628 kJ/mol. GGGAACACGTGGTTTA was tested, and the “relative binding free energy” value was 0.167 kJ/mol. With TTAAGCACGTGTTCGT the “relative binding free energy” value was -0.92 kJ/mol. With GTTCTCACGTGTGTGG the “relative binding free energy” value was 0.962 kJ/mol. With GTACTCACGTGGCGGG the “relative binding free energy” value was 0.753 kJ/mol. With ACCGGCACGTGGGGAG the “relative binding free energy” value was -0.418 kJ/mol. In the case of TGGAGCACGTGATTAG, the “relative binding free energy” value is reported as 0.711 kJ/mol. In the case of TCGCGCACGTGTGGTG, the “relative binding free energy” value is reported as -0.502 kJ/mol. ATTATCACGTGATAAT was tested, and the “relative binding free energy” value was 0.628 kJ/mol. With CTGGTCACGTGTGCAT the “relative binding free energy” value was 0.251 kJ/mol. For GTAGACACGTGCGTGG, the “relative binding free energy” value was -0.544 kJ/mol. TTGTACACGTGATTCG was tested, and the “relative binding free energy” value was 0.335 kJ/mol. TGGGTCACGTGCGCAT was tested, and the “relative binding free energy” value was -0.293 kJ/mol.
